# From the supplement of paper PMC4466236
# Whole data set: some 33,000 sequences, median “E-score (dimensionless, -0.5 to 0.5)” near -0.058, cut for the highest 2% near 0.35. The list shows a part of the results.
# Tested on: MvaT
# Experiment: PBM 8-mer E-score (mean of HK and ME arrays) (E-score (dimensionless, -0.5 to 0.5)); higher = stronger relative binding preference; most listed sequences are background and not binding sites
# Procedure, shortened: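 Full-length P. aeruginosa MvaT, with glutathione S-transferase fused to its N-terminus (cloned into pTH6838 by isothermal assembly), was tested by protein binding microarray using a previously described protocol. Two universal double-stranded 60-mer arrays (ME and HK) were used, each with a constant 25-mer primer region and a variable 35-mer region covering all 8-mers. The rank-based 8-mer E-score (-0.5 to 0.5) is the mean of the two arrays, parsed with a custom Python script.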
row,Sequence,PBM 8-mer E-score
1,GTCTATTA,0.253
2,CTTTAGAC,0.0841
3,AATTCCCC,0.0365
4,CGTGGTTC,-0.229
5,CACCCGTG,-0.135
6,CTAGGAAG,-0.173
7,TCCTGTCA,-0.158
8,TCAGTAGA,-0.0609
9,AAGTACAT,0.261
10,GGAATGAA,-0.0881
11,ACTGCCCC,-0.177
12,AAGTTCGC,0.228
13,CCGTAATC,-0.0203
14,CACTTGGC,-0.0214
15,CCTATTCA,-0.0217
16,AACTCCCC,-0.179
17,TCTACTCA,-0.00357
18,CCTTAGAG,-0.27
19,CCGTCGTA,-0.106
20,CCTCAGCA,-0.33
21,GAGAGGAC,-0.214
22,AGGCGATG,-0.274

row,Sequence,PBM 8-mer E-score
1,CGAACTCG,-0.0897
2,TTATAAAA,0.399
3,GAACTGTC,-0.103
4,ACTCGCAG,-0.101
5,AACAATGC,0.152
6,CACTGCGG,-0.274
7,CAGAGGCC,-0.231
8,TCTCCACA,-0.0938
9,GCGCACGA,-0.106
10,GGATATCA,0.0457
11,GTATGGAC,0.0495
12,GAAAATCC,-0.0819
13,ACGAGATA,0.0636
14,AAGGACCC,-0.19
15,AAGACCCT,-0.279
16,GGAGTAGA,0.0177
17,ACGCGTAT,0.16
18,AGCCTAAG,-0.147
19,TATCGATA,0.224
20,ACCTGGAT,-0.141
21,CACACAGA,0.133
22,GTTGTCTA,-0.0351

row,Sequence,PBM 8-mer E-score
1,ATCGACAG,-0.0324
2,CGTCTAAG,-0.0874
3,AGCTGGTC,-0.199
4,AACCTATA,0.166
5,CTTGTCGA,-0.222
6,ACTGTCCA,-0.0981
7,CCAAGACG,-0.218
8,AAATTTGG,0.106
9,ATAAGCGC,0.0457
10,ATGAGTCC,-0.174
11,CAGTTCCG,-0.0936
12,CTGCACTC,-0.162
13,AGACCCCG,-0.261
14,AGAGCCAT,-0.0987
15,GCCAGTCC,-0.269
16,CGCGGCAG,-0.215
17,CCCACGTC,-0.236
18,GACAAAGC,-0.149
19,AATGAGGG,-0.139
20,CTTGCACA,-0.0147
21,GACCCCTA,-0.163
22,GATCGAGC,-0.169

row,Sequence,PBM 8-mer E-score
1,ACTGTTTC,0.000661
2,AGCCCGAC,-0.235
3,ACCTATCT,-0.0902
4,ACATGCAG,0.0343
5,CTACCGAG,-0.064
6,CTTTAATA,0.344
7,AGACAAAC,0.174
8,CGTCGAAC,-0.118
9,AACAGGTA,0.0496
10,AATAGGCC,-0.095
11,CTAGTGGC,-0.0715
12,CAAACGAA,0.00401
13,ATGAGGTC,-0.0821
14,AGTGGTCA,-0.088
15,ACTCAAAG,-0.0591
16,CCACCCGG,-0.138
17,AACAAACT,0.265
18,CTCAGCGA,-0.309
19,CCTCGACC,-0.286
20,CCGGATGA,-0.0733
